# Assay results published in paper PMC10668032.
# The other results are listed elsewhere or left out. At the low end of the ranking, values are background and their order means little.
# Target: SIX1-Q177R homeodomain (UniProt Q15475)
# Assay: universal protein binding microarray
# Conditions: Universal all-10-mer PBM (8x60K, AMADID 030236), 300 nM GST-tagged protein, Alexa Fluor 488 anti-GST; buffer, salt, pH and temperature not stated; high values mean tight binding; most listed sequences are background and not binding sites; double strand, one strand shown
row,Sequence,binding signal [E-score]
1,CAAATTGC,-0.135
2,CAGACTGC,-0.0122
3,ATGCACGG,0.00124
4,AGTTACTG,0.00404
5,GCGGCGGA,-0.0347
6,CAGCCCCC,0.0983
7,CGATGCCA,-0.101
8,ATGGGCGA,0.00918
9,ACCTACAT,0.149
10,GGTTCGAA,0.0204
11,CCAGCGGA,0.098
12,TATGGCCA,-0.173
13,AAGACTCT,-0.162
14,CATCTGCG,-0.0636
15,CACTCGTA,0.152
16,CGCCTTCA,-0.23
17,CACGCGGA,0.0966
18,TTGAGAAA,-0.0957
19,ATTAGGCG,-0.0394
20,CCATGGAG,0.0738
21,ACTAGCCA,-0.12
22,CTACAGTC,-0.265
23,ATTAAACC,-0.00846
24,CAGCTGGC,0.0504
25,CCCAATCC,-0.017

row,Sequence,binding signal [E-score]
1,CACCCAAC,0.301
2,ACCCAAGC,0.00756
3,CACAACGA,0.0164
4,AGACAGTC,-0.267
5,GCGCTCAC,-0.177
6,ACGTGAAT,-0.11
7,CCTTTGTA,-0.0502
8,CCAGTGAA,-0.0935
9,ACGGACCT,0.122
10,AGTTAACT,-0.0287
11,ATTTAGCA,-0.0726
12,ACCCACCG,0.0894
13,ACAAGAGG,-0.0574
14,ACTACCCC,0.267
15,ACGAAAAT,0.0009
16,GACCTGTA,-0.0689
17,CTCATCCC,-0.0997
18,ACCCGGCA,0.0366
19,TATCAGCA,0.00276
20,ATACCACC,0.25
21,CAGGGAAC,-0.0266
22,TGACCGAA,-0.251
23,ATCACGAA,-0.0575
24,CCCCTCAG,0.251
25,ATTAAAAT,-0.116

row,Sequence,binding signal [E-score]
1,AGTCTCAG,-0.17
2,TAGCGCCA,-0.377
3,TCCGACAA,-0.111
4,ATCCGTTC,-0.0673
5,CGTTACGA,-0.196
6,GGTATAAC,0.198
7,ATAGGCTG,-0.142
8,ATAAAGTC,-0.175
9,CTACTAGC,-0.0989
10,CCGTGACG,0.0163
11,GCATCACC,-0.119
12,GACTGGGC,-0.0516
13,CGGGTACA,0.28
14,ACCTCTGA,0.131
15,ATACCGGA,0.178
16,AACTCAGG,-0.106
17,CTACATCC,-0.152
18,GCTTAAGA,-0.303
19,GATAACCA,-0.204
20,ACTAACGC,0.107
21,CAGAGGGA,-0.0529
22,CCCCAAGA,0.156
23,GTCGCAGA,-0.0975
24,CTACGCCC,0.0405
25,AAAAATAC,-0.157

row,Sequence,binding signal [E-score]
1,CGGGTCAG,0.066
2,AGGTTGCA,0.0461
3,CGCTGGCC,-0.0056
4,AATTAGAT,-0.184
5,GCGCCGGA,0.00295
6,AAGATAAT,-0.111
7,AATGCCCG,-0.0695
8,AGAGTGCA,0.0756
9,GGAATGCC,-0.189
10,GTCCGTAA,0.103
11,GTAACCTA,-0.0889
12,TAGGGTCA,0.0995
13,GATCTGTA,-0.116
14,CCCCGGGG,0.149
15,CTCCATTA,0.0347
16,AACAATTA,-0.169
17,CCTGCACA,0.0692
18,ATTCTCCC,0.0841
19,CGCAGGAG,0.00546
20,ACTCTTAC,0.0596
21,GGCTCTTA,-0.166
22,ACGGGTTG,0.0529
23,ACTTCACA,0.107
24,AGTAGAGC,0.0505
25,CGCAGATA,-0.0204

row,Sequence,binding signal [E-score]
1,ACGTTCGA,-0.0846
2,CATTACAC,0.452
3,GCTTAGAA,-0.141
4,CCAACTTC,-0.131
5,GGTATACA,0.269
6,CTTTTCAC,-0.0851
7,CTAAAAGC,-0.219
8,ACTTTGTG,0.0232
9,AGGTTGTG,-0.0166
10,CAGTTAGG,0.0169
11,ACGGTACT,-0.00834
12,GCACAGCA,-0.18
13,CAGAGCTA,-0.216
14,ACACAACC,0.219
15,AGTGATAC,0.265
16,ATCCCGGC,-0.00965
17,AGCATATC,-0.103
18,GAGTCTCC,-0.0955
19,CACCTTGC,0.258
20,GTACTTGA,0.0461
21,GGGTCGGA,0.227
22,CAACTAAG,-0.218
23,AGGTAAAC,-0.00181
24,AAGTTCCG,-0.186
25,GGAGATGA,0.037

row,Sequence,binding signal [E-score]
1,ACTAAAGA,0.0411
2,CACAGTAA,-0.192
3,CCTTCGAA,0.0216
4,CCTTTGCG,0.0933
5,GGGCGCCC,-0.108
6,CAGACTAA,-0.189
7,CGATACGC,0.0597
8,GCCACGCA,-0.1
9,ATATGGTC,-0.0787
10,AAAAGGAT,0.0452
11,AACTGCGA,-0.172
12,AGCGCAAC,-0.18
13,ATATTGGG,0.115
14,AGCTCGAT,-0.0248
15,AAGGTATC,0.251
16,CCTCCAGC,0.0334
17,GCTTTTAC,0.0428
18,TCGATCGA,0.078
19,CCGCTAAA,-0.125
20,CGTTTAAC,-0.173
21,ATTTCCCA,-0.047
22,ACGCCCAG,0.192
23,ATGGTAAC,0.12
24,AGAGCGGC,-0.124
25,TAAAGACA,0.147

row,Sequence,binding signal [E-score]
1,AACCTGAC,-0.0626
2,GGCGTTTA,-0.0256
3,ACTCGTCT,-0.0328
4,AAACGGAT,0.051
5,AGAACCAG,-0.0378
6,ATTACCGC,-0.219
7,CGTCCTTA,-0.00731
8,CTGAACCC,0.187
9,ACCTCGAA,-0.0704
10,CTGCCAGC,-0.266
11,GCATGCCC,-0.157
12,GTGTAATA,0.451
13,ATACGATC,-0.057
14,CTAAGCCA,-0.205
15,CACGTGTA,0.4
16,ACACGCCG,0.404
17,AGCATTAT,-0.247
18,CTTATATA,-0.139
19,AGCTTAAT,-0.138
20,ATGGACTA,-0.236
21,AAGAATAA,-0.0242
22,TAGAGCCA,-0.128
23,ACGATCAT,-0.232
24,CGGACATA,0.0379
25,GCCCGTCC,0.0148

row,Sequence,binding signal [E-score]
1,GGTTTATA,0.0753
2,CGTTATCA,-0.0947
3,AATACCTG,-0.12
4,CGTTTGAC,-0.0265
5,CCGTGGCG,-0.0351
6,CCATAGAC,-0.0169
7,AGTAAGGC,-0.144
8,TACTTTGA,-0.0537
9,AATACATT,-0.177
10,GTCTGCGA,-0.0828
11,AGTTAGTA,-0.0843
12,TCATCACA,-0.013
13,GGCATCGA,-0.175
14,ATGATTCG,-0.118
15,CTTAACGA,-0.092
16,GACGATAC,0.205
17,GCCCACAA,-0.225
18,CTTATCTA,-0.0791
19,AGTTTTTC,-0.123
20,GCGGGTCC,0.0506
21,ATTGAGAC,0.0498
22,CAGTGTCG,0.444
23,AGCAAACC,0.037
24,GGAGCTGA,-0.0693
25,CCTTGAAC,-0.0734

row,Sequence,binding signal [E-score]
1,ACTACTTG,0.144
2,GCGGCTGA,-0.24
3,ACAGGGTC,0.0966
4,CTTTCATC,-0.198
5,ACGTGTTC,0.314
6,CGGGGGCC,0.0843
7,GACTATCC,-0.0197
8,CTTTACCA,-0.0295
9,GCGCTGCC,0.0245
10,CCCCCGAC,0.272
11,ATCGGTAC,-0.091
12,TCACGTGA,-0.095
13,ACCCATCT,0.105
14,CGCGTGAA,0.0894
15,CTGATGGA,-0.213
16,AACAACGT,-0.153
17,ATAGCACC,0.205
18,GGGGTGAC,0.16
19,ATAGGGGG,0.259
20,ATCGCCAT,-0.181
21,AATCTACA,0.22
22,AACTACTC,0.106
23,TAACAGGA,0.103
24,ACTTATAT,-0.19
25,ACCGCCAA,0.0346

row,Sequence,binding signal [E-score]
1,GTCAGAGA,-0.104
2,ACCTGAAC,0.0806
3,CAGATTGC,-0.169
4,GTGGACTA,0.139
5,CCTATGAA,-0.18
6,TGTCCACA,0.205
7,ACGCTAGA,0.00153
8,TTACCGAA,0.00217
9,GCAACTAC,0.0937
10,TAAAGGGA,0.116
11,CTACAATA,-0.00204
12,CTACTAAC,0.181
13,TCCTACAA,-0.0386
14,GATTTAGA,-0.123
15,TGATGACA,0.127
16,CGAGGCCG,-0.192
17,GCGTTAAC,0.0942
18,AGGCCGAA,0.00559
19,CCAATCAG,-0.205
20,CCTTCACG,-0.0716
21,CATTAGCC,-0.283
22,ATTGTGCA,0.0262
23,GACCCGTA,0.122
24,CATTGGTA,-0.177
25,CGGTCTGC,-0.194

row,Sequence,binding signal [E-score]
1,GCACGTGC,0.125
2,CCTCGTCG,-0.0642
3,ATATATTC,-0.0643
4,ACCTTCAC,-0.00915
5,GGCTTACC,0.0049
6,ATGGATTC,-0.0689
7,ATAACCGG,0.0312
8,CCCGCAAG,0.0989
9,CAGTCAGC,-0.256
10,ATAATTCG,-0.161
11,CAGTATTA,-0.0523
12,GACAGGCA,-0.178
13,CGGAGCCA,-0.0669
14,ACGGCGGA,0.148
15,CGCACTCC,0.0979
16,ATTATCGC,-0.198
17,GCAGCGCA,0.0768
18,CATTTGAC,0.0431
19,CCTATTGC,0.0533
20,CCGCTATC,0.0721
21,ATCATTAA,-0.0855
22,TATGCCAA,0.038
23,ACGTATTG,0.024
24,ACTCGTAC,-0.1
25,AATAACTC,0.0587

row,Sequence,binding signal [E-score]
1,CCCTCGAC,0.176
2,GGTTTCAA,0.0465
3,CAGGTAGA,-0.0284
4,AACCAGTT,0.0378
5,CCCCGCAG,0.0284
6,GCGAATTA,-0.0392
7,CGATAACA,0.232
8,AGAGGCGG,-0.00624
9,AGATCTCG,-0.263
10,GGCCATAC,-0.0717
11,AGTGGTTA,-0.00454
12,ATTGTACA,0.149
13,ATAGAGGC,-0.11
14,CGAGGTTC,0.0186
15,ATGGTACC,-0.0492
16,ACCAGATA,0.162
17,CTCGCGTA,-0.024
18,CAGGTGTC,0.474
19,AACAGAGG,0.0622
20,GCACACGC,0.256
21,ACACGCGC,0.363
22,AAACCTAG,-0.0481
23,GAGCACCA,0.243
24,CGGAGCCG,0.0276
25,TAATTCAA,-0.0194

row,Sequence,binding signal [E-score]
1,CTCAACCA,-0.141
2,CGCGTGAC,0.147
3,CCAGTCCC,-0.283
4,AATGATTA,-0.0319
5,CATACTTA,0.0765
6,AGCTGGGA,-0.0931
7,ACTTACTA,-0.0797
8,ACCCTACC,0.193
9,AACTATGG,-0.0477
10,ATCCGGCA,0.0441
11,CTAACCTA,-0.0886
12,GCTTTCAA,-0.0959
13,CTTCTATC,-0.111
14,CGAGCGAC,0.0996
15,ATCTACGG,0.0244
16,CCAACGCG,0.0963
17,AAGCACAA,-0.108
18,CTCGACAG,-0.176
19,AATCCATC,-0.0722
20,AACGCCCA,0.0256
21,CATTTAGG,-0.11
22,TATACAAA,0.0208
23,CCGTTACC,0.0603
24,CGTTTCGC,-0.232
25,ACCACTTG,-0.00111

row,Sequence,binding signal [E-score]
1,AGTCCCCG,0.064
2,GCGTTCGA,-0.0181
3,CATACTAG,-0.00656
4,GCTATTCC,-0.208
5,AGGATAAC,0.063
6,CAGACCTC,-0.22
7,AGGTGACG,0.0165
8,ATTACGTC,0.0387
9,AAAAGATC,-0.231
10,GACCGACC,-0.0749
11,ATGACCCA,-0.00857
12,ACCCTAAC,0.154
13,GTGATCGA,0.146
14,CCGATCGA,0.0502
15,ACAAGATA,0.0746
16,AAATCGTG,0.0365
17,CGTTTTAC,0.0259
18,TGTACGAA,0.157
19,AGGCAATA,-0.192
